The text below walks through data of paper PMC4336329 (PLoS ONE, 2015).

Hit rate of the full screen: of about 310,000 compounds, about 14,000 (4.5%) showed an effect of 50% or more. Effects have a minus sign here. Some of the results follow.
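Also: peak tail current of the secondary pulse compared with the same well before compound.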

The assay deals with human ether-à-go-go-related gene (hERG) potassium channel (human, UniProt Q12809). Put plainly: primary screen, population patch clamp on CHO cells stably expressing hERG.
Chain of human ether-à-go-go-related gene (hERG) potassium channel (Q12809 whole entry, looked up): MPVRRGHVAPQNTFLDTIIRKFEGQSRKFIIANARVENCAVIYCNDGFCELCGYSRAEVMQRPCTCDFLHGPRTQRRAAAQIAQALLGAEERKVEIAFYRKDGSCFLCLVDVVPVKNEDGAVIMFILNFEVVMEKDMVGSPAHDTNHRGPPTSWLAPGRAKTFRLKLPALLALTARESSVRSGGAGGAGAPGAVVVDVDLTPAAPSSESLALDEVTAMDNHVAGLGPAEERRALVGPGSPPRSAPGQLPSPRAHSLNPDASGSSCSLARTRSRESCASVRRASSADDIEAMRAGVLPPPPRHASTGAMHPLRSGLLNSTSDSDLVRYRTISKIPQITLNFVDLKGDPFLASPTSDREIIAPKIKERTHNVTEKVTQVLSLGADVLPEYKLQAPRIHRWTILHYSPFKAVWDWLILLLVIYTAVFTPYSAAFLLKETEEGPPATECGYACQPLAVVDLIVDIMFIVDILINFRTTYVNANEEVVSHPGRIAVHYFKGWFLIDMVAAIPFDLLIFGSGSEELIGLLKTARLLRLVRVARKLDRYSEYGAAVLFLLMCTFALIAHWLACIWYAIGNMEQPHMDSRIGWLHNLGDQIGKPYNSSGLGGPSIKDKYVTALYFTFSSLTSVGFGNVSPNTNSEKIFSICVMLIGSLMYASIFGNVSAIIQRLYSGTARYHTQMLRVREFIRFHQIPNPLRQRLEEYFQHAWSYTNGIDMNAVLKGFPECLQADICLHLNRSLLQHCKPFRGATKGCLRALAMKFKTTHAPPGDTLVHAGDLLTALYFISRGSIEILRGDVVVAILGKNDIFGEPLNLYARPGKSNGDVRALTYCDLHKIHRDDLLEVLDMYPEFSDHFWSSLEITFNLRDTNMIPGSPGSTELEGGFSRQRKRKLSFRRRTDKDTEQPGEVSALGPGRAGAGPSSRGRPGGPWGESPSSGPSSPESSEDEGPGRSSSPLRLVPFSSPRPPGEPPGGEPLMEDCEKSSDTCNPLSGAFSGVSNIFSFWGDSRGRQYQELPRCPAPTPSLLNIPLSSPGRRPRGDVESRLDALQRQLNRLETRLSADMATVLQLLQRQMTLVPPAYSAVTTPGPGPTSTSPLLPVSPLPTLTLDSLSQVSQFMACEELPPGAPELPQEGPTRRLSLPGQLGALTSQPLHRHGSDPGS
For the molecule `Cc1ccc(S(=O)(=O)Nc2ccc(C(=O)NCc3ccccn3)cc2)cc1`, the “hERG current change (%, negative = inhibition) at 10uM” value was -7.17%.

`CC(=O)NC(Cc1ccccc1)C(=O)NC1CCN(c2ncccc2[N+](=O)[O-])CC1` (stereo not shown): the “hERG current change (%, negative = inhibition) at 10uM” value came out at 17.2%.

For `CCOc1cc(/C=C\c2[nH]c(=O)[nH]c(=O)c2[N+](=O)[O-])ccc1OC(C)CC` (stereo not shown), the “hERG current change (%, negative = inhibition) at 10uM” value amounted to 4.84%.

Consider `CCOC(=O)Cn1c(=O)oc2cc(S(=O)(=O)N3CCc4ccccc43)ccc21`, for which the “hERG current change (%, negative = inhibition) at 10uM” value is given as -2.03%.

Consider `Cc1cc(C(=O)NC2CCCc3c2cnn3-c2cc(F)cc(F)c2)nn1C` (stereo not shown), for which the “hERG current change (%, negative = inhibition) at 10uM” value is on record as -2.15%.

As for `Cc1ccc(NC(=O)COC(=O)c2cc(Cl)cc(Cl)c2)c(Br)c1`, the “hERG current change (%, negative = inhibition) at 10uM” value is -3.47%.

Regarding `O=c1c2[nH]c3cccc(Cl)c3c2ncn1Cc1ccncc1`, the “hERG current change (%, negative = inhibition) at 10uM” value is -13.6%.

`CN(CC(=O)NCc1ccccn1)S(=O)(=O)c1ccc(Br)cc1`: the “hERG current change (%, negative = inhibition) at 10uM” value was -3.43%.

In the case of `CN(C)c1ccnc2sc3c(=O)n(-c4ccccc4)cnc3c12`, the “hERG current change (%, negative = inhibition) at 10uM” value is listed as -17.9%.

Turning to `CCOc1ccc(NC(=O)C2CC(=O)N3CCCN=C3S2)cc1` (stereo not shown), the “hERG current change (%, negative = inhibition) at 10uM” value is 8.89%.

`COc1ccc2c(c1)SC(C)CC2=O` (stereo not shown): the “hERG current change (%, negative = inhibition) at 10uM” value is on record as 6.88%.

`CCCCCOc1cccc(C2C(C(=O)c3cccs3)=C(O)C(=O)N2CCN2CCOCC2)c1` (stereo not shown): the “hERG current change (%, negative = inhibition) at 10uM” value amounted to 6.36%.

In the case of `Cc1cc(C(N)=O)nn1-c1c(Cl)cc(Cl)cc1Cl`, the “hERG current change (%, negative = inhibition) at 10uM” value is reported as 5.66%.

Take `CCOC(=O)c1c(C)[nH]c(O)c1C=Nc1ccc(Cl)cc1`: the “hERG current change (%, negative = inhibition) at 10uM” value was found to be 13.6%.

Regarding `Cc1c(C)c2c(OCC(=O)Nc3cccnc3)cc3c(c2oc1=O)CCC(C)(C)O3`, the “hERG current change (%, negative = inhibition) at 10uM” value is 12%.

As to `O=C(c1cc2cc(Cl)ccc2[nH]1)N1CCN(c2ccccc2F)CC1`, the “hERG current change (%, negative = inhibition) at 10uM” value came to 21.9%.

With `COc1ccc(CC(=O)NC2CC(C)(C)NC(C)(C)C2)cc1`, the “hERG current change (%, negative = inhibition) at 10uM” value came out at 18.2%.

Take `COCCCN(C(=S)Nc1ccc(OC)cc1)C(C)c1ccncc1` (stereo not shown): the “hERG current change (%, negative = inhibition) at 10uM” value is -18.5%.

Turning to `CCc1ccc(OCc2nnc(-c3ccccc3Br)o2)cc1`, the “hERG current change (%, negative = inhibition) at 10uM” value came out at 0.413%.

As to `CN(CC(=O)Nc1ccc(Cl)c(C(F)(F)F)c1)C(=O)/C=C/c1ccco1`, the “hERG current change (%, negative = inhibition) at 10uM” value is on record as 5.99%.

As for `O=C(CSc1nnc(SCc2ccc(Cl)cc2)s1)c1ccc2c(c1)OCO2`, the “hERG current change (%, negative = inhibition) at 10uM” value was determined as 9.81%.

`COc1ccccc1CNC(=O)c1ccc2nc3[nH]c4ccccc4c3nc2c1`: the “hERG current change (%, negative = inhibition) at 10uM” value is reported as -17.2%.

For `O=S(=O)(/C=C/c1ccccc1)N1CCN(c2nc(-c3cccnc3)nc3ccccc23)CC1`, the “hERG current change (%, negative = inhibition) at 10uM” value was -23.6%.

For `O=S(=O)(c1ccc(Cl)cc1)N1CCC(O)(CN2CCN(Cc3ccccc3)CC2)CC1`, the “hERG current change (%, negative = inhibition) at 10uM” value is -75.8%.

As for `CC1=CN2C(=NC(=O)CC2(C)C(=O)N(CC(=O)NC2CCCC2)c2cc(C)cc(C)c2)C=C1` (stereo not shown), the “hERG current change (%, negative = inhibition) at 10uM” value is reported as 35.6%.

In the case of `CC(=O)Nc1ccc(N2CCCC2)cc1`, the “hERG current change (%, negative = inhibition) at 10uM” value was found to be 6.33%.

With `C=CCSc1nnc(N2C(=O)C(O)=C(C(=O)c3ccco3)C2c2ccc(F)cc2)s1` (stereo not shown), the “hERG current change (%, negative = inhibition) at 10uM” value is 8.02%.

Regarding `N#Cc1nc(COc2ccc(-c3ccccc3)cc2)oc1NCCCN1CCOCC1`, the “hERG current change (%, negative = inhibition) at 10uM” value is recorded as -44.4%.

`O=C(COC(=O)C1c2ccccc2Oc2ccccc21)NC1CCS(=O)(=O)C1` (stereo not shown): the “hERG current change (%, negative = inhibition) at 10uM” value stood at 12.5%.

As to `O=[N+]([O-])c1ccc(N2CCCCC2)cc1NCCOc1ccccc1`, the “hERG current change (%, negative = inhibition) at 10uM” value was -2.17%.

For `CC(NC(=O)c1ccc(NS(C)(=O)=O)cc1)c1ccccc1` (stereo not shown), the “hERG current change (%, negative = inhibition) at 10uM” value is listed as -14.8%.

`Cc1noc(C)c1S(=O)(=O)N1CCCC1C(=O)O` (stereo not shown): the “hERG current change (%, negative = inhibition) at 10uM” value is reported as 20%.

As to `Cc1nc(SC(C)C(=O)NC2CCCC2)c2ccccc2n1` (stereo not shown), the “hERG current change (%, negative = inhibition) at 10uM” value is recorded as -15.8%.

For the molecule `Cc1c(NC(=O)C2(c3ccccc3)CCOCC2)c(=O)n(-c2ccccc2)n1C`, the “hERG current change (%, negative = inhibition) at 10uM” value amounted to 1.67%.

As for `Cc1c(C(=O)N(C)CCC#N)oc2ccc(S(=O)(=O)N3CCOCC3)cc12`, the “hERG current change (%, negative = inhibition) at 10uM” value came out at 10.1%.

In the case of `C/C(=N/N=C(\C)c1ccccc1O)c1ccccc1O`, the “hERG current change (%, negative = inhibition) at 10uM” value worked out at 16.2%.

With `COC(=O)c1ccc([C@@H]2C[C@H]3CN(Cc4cccnc4)C(=O)[C@]34CCCN24)cc1`, the “hERG current change (%, negative = inhibition) at 10uM” value is given as -1.19%.

As to `CCOc1cc(-c2cc(-c3ccc(N)cc3)nc(N)c2C#N)ccc1O`, the “hERG current change (%, negative = inhibition) at 10uM” value is listed as -1.19%.

Take `CCCCC(=O)Nc1ccc(C(=O)OC2CCCCC2)cc1`: the “hERG current change (%, negative = inhibition) at 10uM” value worked out at 10.9%.

For `COc1ccc(OC)c(CC(=O)N2CCc3cc(OC)c(OC)cc3C2)c1`, the “hERG current change (%, negative = inhibition) at 10uM” value is 6.76%.

Consider `Cc1cc([N+](=O)[O-])nn1CC(=O)Nc1cc(F)ccc1F`, for which the “hERG current change (%, negative = inhibition) at 10uM” value worked out at 7.03%.

Turning to `COC(=O)c1ccccc1NC1=C/C(=N\S(=O)(=O)c2cccs2)c2ccccc2C1=O`, the “hERG current change (%, negative = inhibition) at 10uM” value is 6.32%.

`O=C(O)C1CCN(C(=O)CCN2C(=O)S/C(=C\c3ccccc3)C2=O)CC1`: the “hERG current change (%, negative = inhibition) at 10uM” value was determined as 33.4%.
